Data on 52 compounds can be found in article PMC12040169 (PLOS Biology, 2025).

The other results are listed elsewhere or left out.

The assay deals with T1, C. trachomatis L2/434/Bu expressing GFP (CTL2-GFP).
T1 construct: L2/434/Bu GFP intracellular growth in HeLa cells
Also noted: species or system HeLa; C. trachomatis total inclusion area by high-content imaging, normalised to DMSO. As to conditions: total inclusion area; 28.5 h, 10 µM; inhibitor. In outline:
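Post-fluorescence-read fixation, DNA staining with Hoechst and high-content imaging; GFP inclusion area and number per well, and nuclei counts, used as proxies for bacterial growth and host viability.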
`COc1ccccc1OCCSc1nnnn1C1CCCCC1` [CBK141884]: the “% of control remaining” value is on record as 73.0844.

For `Cc1cc2ccccc2c(=O)n1CCO` [CBK015621], the “% of control remaining” value is 51.1503.

Turning to `COc1cccc(C(=O)NC(c2ccc([N+](=O)[O-])cc2)c2c(O)ccc3ccccc23)c1` (stereo not shown) [CBK263971], the “% of control remaining” value came to 103.747.

With `Cc1ccc(CSCCNS(=O)(=O)c2ccsc2C(=O)O)cc1` [CBK296727], the “% of control remaining” value came to 82.1248.

In the case of `COc1ccc(-c2ccc(OC)cc2C(=O)Nc2ccc3c(c2)OCC(=O)N3)cc1` [CBK285821], the “% of control remaining” value is 99.9715.

As to `O=C(O)C1CCCCC1C(=O)NCc1cccnc1` (stereo not shown) [CBK261695], the “% of control remaining” value is given as 88.7623.

On to `Cn1c(=O)c2c(nc(NCCCO)n2C/C=C/c2ccccc2)n(C)c1=O` [CBK268940], for which the “% of control remaining” value turned out to be 72.7779.

On to `COc1cc2c(cc1CNC(=O)c1cn(CCN)nn1)CCC2` [CBK306886], for which the “% of control remaining” value came to 17.2405.

`Cn1c(-c2ccc(C(=O)O)cc2)cc2oc(-c3ccccc3)nc2c1=O` [CBK074957]: the “% of control remaining” value stood at 88.876.

On to `NC(=O)c1ccc(NC(=O)c2sc3ccccc3c2Cl)cc1` [CBK262643], for which the “% of control remaining” value turned out to be 96.8952.

For the compound `Cc1ccc(Cl)cc1NC(=O)c1cc(NC(=O)C2C3C=CC(C3)C2C(=O)O)ccc1N1CCCCC1` (stereo not shown) [CBK268194], the “% of control remaining” value was 94.6589.

Turning to `Cc1cc(C(=O)NCCO)ccc1Br` [CBK175092], the “% of control remaining” value was found to be 114.141.

With `CCc1csc(C2CN3CCCC3CO2)n1` (stereo not shown) [CBK304793], the “% of control remaining” value stood at 55.9829.

For the compound `CCN(CC)C(=O)C1CCCN(C(=O)Nc2cccc(OC)c2)C1` (stereo not shown) [CBK005159], the “% of control remaining” value is reported as 105.7.

With `Cc1ccc(Oc2ccc(C(=O)NCC(=O)O)cc2)cc1C` [CBK286570], the “% of control remaining” value turned out to be 92.4114.

As for `CC1=CCC(C(=O)O)C(C(=O)Nc2cccnc2)C1` (stereo not shown) [CBK265895], the “% of control remaining” value was 94.2504.

Consider `O=C(NC1(c2ccccc2)CC1)c1ccc(-n2cnnc2)cc1` [CBK282778], for which the “% of control remaining” value came out at 102.39.

Take `CC(C)(C)OC(=O)NCc1ccc(CNCc2ccccc2Br)cc1` [CBK056701]: the “% of control remaining” value was 75.616.

As to `Cn1cc([C@@H]2CN(Cc3cccs3)C[C@H]2N)c2ccncc21` [CBK285320], the “% of control remaining” value was determined as 109.868.

On to `NS(=O)(=O)c1ccc(NC(=O)CSc2ccc([N+](=O)[O-])cn2)cc1` [CBK269002], for which the “% of control remaining” value came to 47.2302.

For the compound `O=S(=O)(c1cc(Cl)ccc1Cl)N1CCSC1` [CBK097980], the “% of control remaining” value was 106.029.

Take `O=c1[nH]c2c(c(=O)[nH]1)[C@H]1[C@H](O)[C@H](O)C[C@H]1[C@@H](c1ccccc1)N2` [CBK303239]: the “% of control remaining” value was determined as 82.9078.

Regarding `Cc1nn(CC(=O)C(C)(C)C)c(=O)c2cc3sccc3n12` [CBK284111], the “% of control remaining” value is 89.6248.

Take `CC(C)(C)C(=O)Nc1ccc(Cc2ccc(NC(=O)C(C)(C)C)c(C(=O)O)c2)cc1C(=O)O` [CBK261393]: the “% of control remaining” value is given as 95.1092.

Consider `C=CCOc1ccc(-c2nn(-c3ccccc3)cc2/C=C2/SC(=S)N(CC(=O)O)C2=O)c(C)c1` [CBK265062], for which the “% of control remaining” value was 108.802.

Consider `CC(=O)c1c(C)n(O)c2ccc(Cl)cc2c1=O` [CBK217746], for which the “% of control remaining” value came to 81.7522.

On to `O=C1CCc2cccc(OCCOc3nccnc3N3CCNCC3)c21` [CBK200001G], for which the “% of control remaining” value was found to be 90.1889.

With `CCN1CCCC(NC(=O)COc2nn(C)c3nc(C)cc(C)c23)C1` (stereo not shown) [CBK305224], the “% of control remaining” value was determined as 30.4379.

As for `O=c1[nH]ccn1CCNc1ccc(-c2cccc(Cl)c2Cl)cn1` [CBK037745], the “% of control remaining” value turned out to be 133.86.

`COCC1(C(=O)N(C)Cc2nnc(-c3ccccc3)o2)CCC1` [CBK306987]: the “% of control remaining” value was 79.5808.

For the compound `O=C(C1CC1)N1CCC(Cn2nc(-c3cccs3)ccc2=O)CC1` [CBK284039], the “% of control remaining” value is on record as 101.463.

For `COc1ccc(NC(=O)C2CCCCC2C(=O)O)c(C)c1` (stereo not shown) [CBK270301], the “% of control remaining” value is recorded as 68.7176.

As to `O=C(O)C1CC(O)CN1S(=O)(=O)c1ccc([N+](=O)[O-])cc1` (stereo not shown) [CBK266158], the “% of control remaining” value was found to be 120.424.

With `O=C(CCN1C(=O)[C@@H]2Cc3ccccc3CN2C1=O)N[C@H](C(=O)O)c1ccccc1` [CBK286751], the “% of control remaining” value was determined as 86.4476.

Consider `COCCN1CCN(C(=O)NCCc2c(C)[nH]c3ccc(Cl)cc23)CC1` [CBK307637], for which the “% of control remaining” value is 62.034.

For the compound `CN1CCC2(CC1)CC(NC(=O)c1ccco1)c1ccccc1O2` (stereo not shown) [CBK283804], the “% of control remaining” value is 82.1799.

Consider `COc1ccc(-c2nc(NC(=O)CC#N)cnc2-c2ccc(F)cc2)cc1` [CBK037198], for which the “% of control remaining” value amounted to 129.769.

Regarding `C[C@@H](Cn1nnc2ccccc21)NC(=O)Cc1ccccc1F` [CBK282305], the “% of control remaining” value is reported as 97.012.

Take `COc1cccc2sc(Nc3nc(-c4cccnc4)cs3)nc12` [CBK287470]: the “% of control remaining” value was found to be 61.7441.

On to `CN1CCN(C(=O)c2ccsc2NS(=O)(=O)/C=C/c2ccccc2)CC1` [CBK042267], for which the “% of control remaining” value stood at 99.6255.

Consider `Cc1cc(OCCC#N)cc(C)c1Cl` [CBK015872], for which the “% of control remaining” value is on record as 84.9971.

On to `CC(=O)N(C)c1ccc(NC(=O)/C=C/C(=O)O)cc1` [CBK287162], for which the “% of control remaining” value was 111.104.

With `CC(C)C[C@@H]1N[C@H](C(=O)NC2CC2)Cc2cn(Cc3nccn3C)c3cccc1c23` [CBK289423], the “% of control remaining” value worked out at 112.784.

As to `Cc1nn(C)c(N2CCNCC2)c1NC(=O)c1ccccc1` [CBK050257T], the “% of control remaining” value is 105.765.

Take `O=C(Cc1nnc(-c2ccncc2)o1)NCCC1=CCCCC1` [CBK288605]: the “% of control remaining” value was 86.7086.

Consider `COC(=O)Cn1c(-c2ccc(OC)cc2)cc2cccnc21` [CBK282268], for which the “% of control remaining” value came to 87.2929.

In the case of `C[C@H](c1ccccc1)N1C(=O)[C@@H]2CN(C(=O)CC(C)(C)CC(=O)O)CCN2C1=O` [CBK289639], the “% of control remaining” value is listed as 97.4632.

For `CCNC(=O)C1=C(C(=O)NCC)N2C(=NC(C)(C)c3ccccc32)S1` [CBK010172], the “% of control remaining” value turned out to be 90.5591.

As to `Cn1ccc(C2CCCCCN2C(=O)Cc2cccs2)n1` (stereo not shown) [CBK283047], the “% of control remaining” value is given as 78.524.

As for `Cc1cc(C(=O)Nc2ccc(S(=O)(=O)Nc3onc(C)c3C)cc2)no1` [CBK268166], the “% of control remaining” value was determined as 44.5738.

On to `O=C(O)CNS(=O)(=O)c1cc(Cl)sc1Cl` [CBK034452], for which the “% of control remaining” value was determined as 73.1976.

In the case of `Cc1c(C(C)NC(=O)Nc2ccc(F)cc2F)cnn1C` (stereo not shown) [CBK266986], the “% of control remaining” value worked out at 89.1533.
